This is an account of results in a collection of fitness landscapes (doi:10.1016/j.celrep.2020.107928).

In all, about 81,000 sequences were measured (“one-hybrid fitness for binding parS DNA”: median about -0.17, highest 2% from about 0.51 on). This is one part of the list.

The labels stand for the following.
B1: Caulobacter ParB omega fusion; a variant is named by its letters at X, in order, B8GW30 (parent)
chain: MESVVVGEPGMSEGRRGLGRGLSALLGEVDAAPAQAPGEQLGGSREAPIEILQRNPDQPRRTFREEDLEDLSNSIREKGVLQPILVRPSPDTAGEYQIVAGERAWRAAQRAGLKTVPIMVRELDDLAVLEIGIIENVQRADLNVLEEALSYKVLMEKFERTQENIAQTIGKSXSHVANXMRLLXLPDEVQSYLVSGELTAXHARAIAAAADPVALAKQIIEGGLSVRETEALARKAPNLSAGKSKGGRPPRVKDTDTQALESDLSSVLGLDVSIDHRGSTGTLTITYATLEQLDDLCNRLTRGI

The variants in the experiment derive from B1. In words: one-hybrid fitness for binding parS DNA (scaled: cognate 1, non-cognate 0); higher = stronger binding. The note with it: with parS DNA site. The method, boiled down: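 On M9-minus-histidine containing 0.1 mM IPTG and 5 mM 3-AT, E. coli USO cells with a HIS3 reporter, site 19 bp from the promoter, grew 48 hours at 37°C to select Caulobacter ParB libraries randomised at four specificity codons. Plasmids from before and after were Illumina-sequenced, with three replicate libraries pooled and variants under 10 reads left out. Fitness is the log change in variant-to-wild-type read ratio, rescaled against cognate and non-cognate.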
As for AAPL, the “one-hybrid fitness for binding parS DNA” value was at most 0.2.
The result for KPIT reads at most 0.2; that for DHCK, at most 0.2.
The result for VQLN reads at most 0.2; that for HLSF, at most 0.2; that for DKVQ, at most 0.2.
In the case of GGLG, the “one-hybrid fitness for binding parS DNA” value was at most 0.2.
Next, SRGR: at most 0.2.
The result for SACR reads at most 0.2; that for KAKL, at most 0.2.
Next, TSHL: at most 0.2.
Turning to PETR, the “one-hybrid fitness for binding parS DNA” value was at most 0.2.
The result for FLCR reads at most 0.2; that for TRFW, at most 0.2; that for KRKV, at most 0.2.
As for VNCI, the “one-hybrid fitness for binding parS DNA” value was at most 0.2.
Next, WLSR: at most 0.2.
Next, WLQT: at most 0.2; SYQQ: at most 0.2; PPIP: at most 0.2.
Next, FHDS: at most 0.2; EGGL: at most 0.2; CLLV: at most 0.2.
Consider QMMT, for which the “one-hybrid fitness for binding parS DNA” value is at most 0.2.
Turning to ANPF, the “one-hybrid fitness for binding parS DNA” value is at most 0.2.
Next, YCWG: at most 0.2.
The result for AAQC reads at most 0.2.
With AQQL, the “one-hybrid fitness for binding parS DNA” value is at most 0.2.
With PRWT, the “one-hybrid fitness for binding parS DNA” value is at most 0.2.
The result for MRHG reads at most 0.2; that for VCSH, at most 0.2; that for KARS, at most 0.2.
The result for MWYC reads at most 0.2; that for RDIW, at most 0.2.
The result for KIPN reads at most 0.2; that for PKEC, at most 0.2.
Turning to RCWY, the “one-hybrid fitness for binding parS DNA” value was 0.513.
As for CDTF, the “one-hybrid fitness for binding parS DNA” value was at most 0.2.
The result for LLAW reads at most 0.2; that for GCTP, at most 0.2; that for GKLG, at most 0.2.
As to PDQR, the “one-hybrid fitness for binding parS DNA” value was at most 0.2.
The result for DLNS reads at most 0.2.
Next, RICG: 0.976.
Next, IVTR: at most 0.2; YPHH: at most 0.2; IFRT: at most 0.2.
Regarding NAWS, the “one-hybrid fitness for binding parS DNA” value was at most 0.2.
Next, CRKL: at most 0.2; SRVG: at most 0.2; ITRY: at most 0.2.
The result for KSHV reads at most 0.2; that for RQHI, at most 0.2; that for ISYR, at most 0.2.
The result for CYLL reads at most 0.2; that for PEKV, at most 0.2.
Turning to YNNH, the “one-hybrid fitness for binding parS DNA” value is at most 0.2.
Consider SVQR, for which the “one-hybrid fitness for binding parS DNA” value was at most 0.2.
Next, ITAL: at most 0.2; CRPK: at most 0.2.
Next, MIVW: at most 0.2; TTKF: at most 0.2; RRGA: 0.749.
In the case of IAPT, the “one-hybrid fitness for binding parS DNA” value was at most 0.2.
Next, SQNG: at most 0.2; QYTT: at most 0.2; FLLM: at most 0.2.
The result for AWHR reads at most 0.2.
Next, DTFR: at most 0.2.
As for QKNR, the “one-hybrid fitness for binding parS DNA” value is at most 0.2.
In the case of TLYC, the “one-hybrid fitness for binding parS DNA” value was at most 0.2.
Next, QDNS: at most 0.2.
As to LYAT, the “one-hybrid fitness for binding parS DNA” value was at most 0.2.
Next, QETH: at most 0.2.
Next, DPNF: at most 0.2; SHPW: at most 0.2; DGVI: at most 0.2.
